Source: publication PMC4336329 (PLoS ONE, 2015)
In all, about 310,000 compounds went through this assay and about 2,200 (0.71%) showed an effect of 50% or more. Effects have a minus sign here. The list shows a part of the results.

biological target: human ether-à-go-go-related gene (hERG) potassium channel (human, UniProt Q12809); assay: primary screen, population patch clamp on CHO cells stably expressing hERG
Sequence (Q12809 whole entry, looked up): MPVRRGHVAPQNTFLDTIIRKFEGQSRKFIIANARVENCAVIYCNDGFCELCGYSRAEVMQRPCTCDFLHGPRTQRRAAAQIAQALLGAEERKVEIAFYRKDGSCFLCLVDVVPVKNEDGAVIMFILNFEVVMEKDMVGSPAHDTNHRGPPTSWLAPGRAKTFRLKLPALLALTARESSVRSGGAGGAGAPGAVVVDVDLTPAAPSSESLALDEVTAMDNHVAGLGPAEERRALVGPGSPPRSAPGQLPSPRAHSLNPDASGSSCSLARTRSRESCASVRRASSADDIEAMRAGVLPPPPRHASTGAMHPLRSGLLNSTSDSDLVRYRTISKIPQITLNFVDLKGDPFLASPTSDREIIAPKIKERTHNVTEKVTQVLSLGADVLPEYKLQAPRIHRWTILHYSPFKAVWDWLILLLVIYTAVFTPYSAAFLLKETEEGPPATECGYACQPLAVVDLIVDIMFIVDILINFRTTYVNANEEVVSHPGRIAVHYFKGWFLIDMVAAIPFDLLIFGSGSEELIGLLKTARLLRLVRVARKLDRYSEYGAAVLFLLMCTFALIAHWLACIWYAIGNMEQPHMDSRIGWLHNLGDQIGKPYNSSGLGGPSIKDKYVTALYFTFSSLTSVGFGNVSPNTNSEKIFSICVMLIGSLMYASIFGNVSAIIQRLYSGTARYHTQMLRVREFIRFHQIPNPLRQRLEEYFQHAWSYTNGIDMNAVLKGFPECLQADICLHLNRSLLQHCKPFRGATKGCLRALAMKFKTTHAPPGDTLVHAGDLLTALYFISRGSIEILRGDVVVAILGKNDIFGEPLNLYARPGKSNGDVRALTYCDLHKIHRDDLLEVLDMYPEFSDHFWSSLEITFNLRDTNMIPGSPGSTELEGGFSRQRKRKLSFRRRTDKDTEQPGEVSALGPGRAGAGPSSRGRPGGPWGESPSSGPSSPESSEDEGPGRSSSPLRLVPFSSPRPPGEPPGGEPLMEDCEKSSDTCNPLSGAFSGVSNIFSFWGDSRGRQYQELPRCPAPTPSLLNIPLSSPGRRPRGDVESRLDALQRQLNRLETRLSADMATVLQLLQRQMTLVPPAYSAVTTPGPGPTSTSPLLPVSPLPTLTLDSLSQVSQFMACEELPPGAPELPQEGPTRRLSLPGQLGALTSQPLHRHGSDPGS

Row | SMILES | hERG current change (%, negative = inhibition) at 1uM
1 | CN(C)/C=C/C(=O)c1ccc(Oc2ncccn2)cc1 | 24.7%
2 | COC(=O)c1cccnc1-n1c(=O)c2cccnc2n(CC(=O)Nc2ccc(Br)cc2)c1=O | 5.27%
3 | COc1ccc(Cl)cc1NC(=O)c1ccccc1C | 14.2%
4 | COc1ccc(NC(=O)CSc2ccc3nnc(-c4ccccn4)n3n2)cc1 | 7.57%
5 | O=C(NC1CC2CCCC(C1)N2Cc1ccccc1)c1cccc(F)c1 (centres unmarked) | -29.8%
6 | COc1cc2c(cc1NC(=O)CSc1nnc(Cc3cccs3)n1Cc1ccco1)oc1ccccc12 | 3.35%
7 | CNc1ncc(-c2nnnn2-c2ccccc2)c(-c2ccccc2)n1 | 8.07%
8 | COc1ccc(N(CC(=O)N2c3ccccc3CC2C)S(=O)(=O)c2c(C)noc2C)cc1 (centres unmarked) | 9.71%
9 | CCN(CC)C(=S)Nc1ccc2nc3n(c(=O)c2c1)CCCCC3 | 0.573%
10 | COc1ccc(-c2c(C)nn3c(-c4ccccc4)cc(C)nc23)cc1 | -8.9%
11 | CC(C)(C)c1ccc(OCC(=O)N2CCCCCC2)c(Br)c1 | 8.61%
12 | CC1CCN(C(=O)Cn2c(=O)oc3ccccc32)CC1 | 7.96%
13 | NC(=O)[C@@H]1CCOc2c(F)cc([N+](=O)[O-])cc2C(=O)N[C@@H](CO)C(=O)NCC(=O)N1 | 11.7%
14 | COc1ccc(OCC(=O)Nc2nccs2)cc1 | 1.78%
15 | CN1CCN(C(=O)CCN2C(=O)S/C(=C/c3ccc(Cl)cc3)C2=O)CC1 | -1.76%
16 | O=C1N/C(=N\N=C\c2cccs2)SC1Cc1cccc(Cl)c1Cl (centres unmarked) | 10.7%
17 | CCCN1CCN(CCCNC(=O)C2CCN(c3nnc(-n4c(C)ccc4C)s3)CC2)CC1 | 13.1%
18 | COC(=O)N(C)c1ccccc1C(=O)N1CCOCC1 | 10.1%
19 | O=c1nccc(NCc2ccco2)[nH]1 | -6.89%
20 | C/C(=N/NC(=O)c1cn(-c2cccc(C)n2)cn1)c1ccc(C)cc1 | 8.18%
21 | O=C(NNC(=S)NC(=O)c1ccccc1[N+](=O)[O-])c1ccccc1Cl | 12.2%
22 | C=CCN(c1nc(C)cc(OC)n1)S(=O)(=O)c1ccc(C)cc1 | 20.2%
23 | Nc1[nH]n(-c2ccccc2)c(=O)c1N=Nc1ccc2ncsc2c1 | 8.47%

Row | SMILES | hERG current change (%, negative = inhibition) at 1uM
24 | COC(=O)c1ccc(/C=N/Nc2nc(-c3ccc(C)cc3)cs2)cc1 | 5.67%
25 | CC12CN3CC(C)(CN(C1)C3c1cccs1)C2O (centres unmarked) | -2.29%
26 | Oc1ccc(-n2nnnc2SCc2ccccc2Br)cc1 | 16.8%
27 | CN(C)c1ccc(/C=N/N=C2/SC(CC(=O)O)C(=O)N2c2ccc(O)cc2)cc1 (centres unmarked) | 12.3%
28 | C=CCOC(=O)C1=C[C@@H](c2ccc3c(c2)OCO3)C[C@@H](OCCCCO)O1 | 3.68%
29 | C=C(C)c1cccc(C(C)(C)NC(=O)N2CCCC2)c1 | 8.97%
30 | c1coc(Cn2c(SCc3nc4ccccc4[nH]3)nnc2-c2cnccn2)c1 | -21.2%
31 | Cc1cc(S(=O)(=O)Nc2ccc(C(=O)NCc3ccncc3)cc2)ccc1F | 14.8%
32 | O=C(O)C1C2CC3CC(C2)CC1(n1ncc(N2CCC4(CC2)OCCO4)c(Cl)c1=O)C3 (centres unmarked) | 10.7%
33 | Cc1cc(C#N)c(SCC(N)=O)nc1-c1ccc(F)cc1 | 10.5%
34 | COc1ccc(-c2cc3c(=O)n(CC(=O)Nc4cccc(Cl)c4)nc(C)n3n2)cc1 | 0.236%
35 | Cc1nc(C)c(C(=O)N/N=C/c2cc(Br)ccc2O)s1 | 25.4%
36 | CCCCCC(=O)N/N=C/c1ccc(N(C)C)cc1 | 2.58%
37 | COc1ccc(OCC(=O)NS(=O)(=O)c2ccc(Cl)cc2)cc1 | 13.9%
38 | CCCN1C(=O)COc2ccc(C(=O)c3ccccc3C(=O)O)cc21 | 17.1%
39 | CNc1ccccc1C(C)(C)c1cc(-c2cccc([N+](=O)[O-])c2)no1 | 10.8%
40 | CSc1ccc(/C=C/C(=O)c2ccc(O)cc2)cc1 | 5.62%
41 | COc1ccc(-c2nnnn2C)cc1S(=O)(=O)NCCc1ccccc1 | 11.7%
42 | O=C(CSc1nc2c(cnn2-c2ccc(F)cc2)c(=O)[nH]1)Nc1nccs1 | 4%
43 | CN1C(=O)CC(N2CCC(C(N)=O)CC2)C1=O (centres unmarked) | 1.75%
44 | Cc1ccccc1NC(=O)CN1CCN(Cc2ccccc2)CC1 | 1.75%
45 | CCOc1ccccc1N=Cc1c(O)c2ccccc2oc1=O | 15.4%
46 | CCN(CC)CCN(C(=O)c1ccc(S(=O)(=O)N(C)C2CCCCC2)cc1)c1nc2c(C)cccc2s1.Cl | 2.81%

Row | SMILES | hERG current change (%, negative = inhibition) at 1uM
47 | CCC1NC(=O)c2ccccc2N1c1cccc(Cl)c1 (centres unmarked) | 10.9%
48 | Oc1ccc2ccc3[nH]cnc3c2c1 | -2.33%
49 | Cc1cccc(/C=c2\s/c(=C\C(=O)C(C)(C)C)[nH]c2=O)c1 | 11.3%
50 | O=C(COC(=O)/C=C/c1cccc(C(F)(F)F)c1)Nc1cccc2ccccc12 | 8.61%
51 | CC(C)N(C(=O)CN1C(=O)C(=O)c2ccccc21)c1ccccc1 | 1.25%
52 | O=C1Nc2ccccc2Oc2cc([N+](=O)[O-])cc(Oc3ccccc3)c21 | -4.94%
53 | COc1cc(/C=C(\C#N)C(=O)Nc2ccc3ccccc3c2)c([N+](=O)[O-])cc1OC | 7.46%
54 | COC(=O)CCCC(NC(=S)N1CC2C[C@@H](C1)Cn1c2cccc1=O)C(=O)OC (some centres unmarked) | 5.9%
55 | CCN(CC)CC(C)OC(=O)c1ccccc1Cl (centres unmarked) | 21.8%
56 | O=[N+]([O-])c1ccc(N2CCOCC2)c2cccnc12 | -7.04%
57 | c1ccc(Nc2ncnc3c2oc2ccccc23)cc1 | 7.89%
58 | C#Cc1ccc([C@@H]2C=C(C(=O)N3CCN(Cc4ccccc4)CC3)O[C@H](OCC)[C@H]2CCCO)cc1 | 14.6%
59 | O=C(Oc1ccccc1C(=O)N1CCOCC1)c1ccccc1 | 9.69%
60 | O=C(NCC(c1cccnc1)N1CCN(c2ccccc2)CC1)Oc1ccccc1 (centres unmarked) | 9.09%
61 | Cc1cccnc1NC(=O)Cn1nc(C)c([N+](=O)[O-])c1C | 5.46%
62 | CCN(Cc1ccccc1)C(=O)c1cc(COc2c(F)cccc2F)on1 | 9.59%
63 | Cn1cc(/C=N\NC(=O)C2COc3ccccc3O2)c2ccccc21 (centres unmarked) | 8.45%
64 | Cc1ccc(N(CCC#N)C(=O)CCl)cc1C | 8.95%
65 | COc1cc(/C=C/C(=O)O)cc2c1OCCO2 | 19.6%
66 | CN(C)C(=S)NC(=O)c1cccc(Cl)c1 | 13.3%
67 | O=C(/C=C/c1ccccc1Cl)NC1CCS(=O)(=O)C1 (centres unmarked) | 20.9%
68 | CC(=O)OCCSc1c(-c2ccccc2)c2cc(Cl)ccc2[nH]c1=O | -1.73%
69 | NS(=O)(=O)c1ccc(Nc2nc(-c3ccc(O)cc3O)cs2)cc1 | 5.54%

Row | SMILES | hERG current change (%, negative = inhibition) at 1uM
70 | N#CCn1c(CCl)nc2ccccc2c1=O | 11.8%
71 | O=C(Nc1csc(Cc2c(Cl)cccc2Cl)n1)NN1CCOCC1 | 14.8%
72 | CN1C(=O)C(=Cc2ccccc2OS(=O)(=O)c2ccccc2)C(=O)N(C)C1=O | 9.02%
73 | Nc1ccccc1C(=O)NCc1ccccc1 | 1.59%
74 | CC(OC(=O)c1cnc2ccccc2n1)c1ccccc1Cl (centres unmarked) | 8.02%
75 | Cc1cc(-n2c(=S)sc3c(=O)n(-c4ccc(F)cc4)c(SCC(=O)O)nc32)ccc1Cl | 18.8%
76 | N=C1S/C(=C\c2cccc3ccccc23)C(=O)N1c1ccc(F)cc1 | 14.8%
77 | COc1ccc(C(NC(=O)C(C)(C)C)NC(=O)C(C)(C)C)cc1 | 20.2%
78 | CC(CC(=O)c1cccs1)CC(=O)c1cccs1 | 6.05%
79 | COc1cc(SC)ccc1C(=O)Nc1cccc(S(=O)(=O)NC2=NCCC2)c1 | 3.3%
80 | O=C(/C=C/c1cn(-c2ccccc2)nc1-c1ccccc1)Nc1ccc(C(=O)O)cc1 | 19.2%
81 | O=C(Nc1cc([N+](=O)[O-])ccc1C(=O)Nc1cccnc1)c1ccccc1 | 2.44%
82 | CC(=O)Nc1cccc(NC(=O)CCCC(=O)O)c1 | 7.91%
83 | O=C(Nc1ccc(C(=O)N2CCOCC2)cc1)c1ccccc1[N+](=O)[O-] | 14.9%
84 | CCOC(=O)c1[nH]c2ccc(F)cc2c1NC(=O)CN1CCN(C/C=C/c2ccccc2)CC1 | -77.3%
85 | CCN(CC)S(=O)(=O)c1ccc(/C=C/C(=O)Nc2ccc(Br)cc2F)cc1 | 1.33%
86 | COC(=O)CNC(=O)COC(=O)/C=C/c1ccc2ccccc2n1 | 9.01%
87 | COc1ccc(CN2C(=O)Cc3c2nc(N)c2c(N)nc(N4CCOCC4)c(C#N)c32)cc1 | 2.96%
88 | CCOc1ccccc1CNS(=O)(=O)c1cc(-c2cc(C)no2)ccc1C | 8.79%
89 | COc1ccc(-c2nc(C#N)c(NC(C)C)o2)cc1 | 21.2%
